# According to the supplement of paper PMC12217912:
# The other results are listed elsewhere or left out. The full chains were built here from the parent and the listed change. Values near 0.05 are background.
# B1: TEV protease; numbered along this chain (parent)
# chain: MGESLFKGPRDYNPISSSICHLTNESDGHTTSLYGIGFGPFIITNKHLFRRNNGTLVVQSLHGVFKVKDTTTLQQHLVDGRDMIIIRMPKDFPPFPQKLKFREPQREERICLVTTNFQTKSMSSMVSDTSCTFPSGDGIFWKHWIQTKDGQCGSPLVSTRDGFIVGIHSASNFTNTNNYFTSVPKNFMELLTNQEAQQWVSGWRLNADSVLWGGHKVFMVKPEEPFQPVKEATQL
# Variants of: B1
# Assay: raw area under fraction-flipped curve 0-4 h after induction (AUC4h, not background-subtracted), DNA-recorder readout of cleavage of the substrate (dimensionless); higher = more cleavage of the substrate by the protease variant
# Conditions: temperature: 34 °C; time window: 0-4 h after rhamnose induction
# Description: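 In vivo DNA recorder in E. coli TOP10(DE3) ΔrhaA at 34 °C. Each TEVp single-site mutant (parent TEVp 0) is paired with a single-site variant of the 7-mer TEVs (canonical ENLYFQ|S). The substrate sits between flexible linkers in a Bxb1-sfGFP-TEVs-SsrA fusion, so cleavage stabilises Bxb1 and speeds flipping of a recombination array, read by NGS. The value is the raw area under the fraction-flipped curve over 0-4 h after rhamnose induction (AUC4h), with ≥20 reads per time point. It is not background-subtracted; inactive controls average about 0.047.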
# 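Note: Bxb1 expression induced with 0.2% (w/v) L-rhamnose at OD600 near 0.5, cultures sampled hourly, flipped fraction per protease–substrate barcode pair counted by paired-end Illumina sequencing.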
Variant,area with substrate CNLYFQS,area with substrate FNLYFQS,area with substrate GNLYFQS,area with substrate HNLYFQS,area with substrate INLYFQS,area with substrate KNLYFQS,area with substrate LNLYFQS,area with substrate MNLYFQS,area with substrate NNLYFQS,area with substrate PNLYFQS,area with substrate TNLYFQS,area with substrate VNLYFQS,area with substrate WNLYFQS,area with substrate YNLYFQS,area with substrate QNLYFQS,area with substrate RNLYFQS,area with substrate SNLYFQS
MGESLFKGPRDYNPISSSICHLTNESDGHTTSLYGIGFGPFIITNKHLFRRNNGTLVVQSLHGVFKVKDTTTLQQHLVDGRDMIIIRMPKDFPPFPQKLKFREPQREEPICLVTTNFQTKSMSSMVSDTSCTFPSGDGIFWKHWIQTKDGQCGSPLVSTRDGFIVGIHSASNFTNTNNYFTSVPKNFMELLTNQEAQQWVSGWRLNADSVLWGGHKVFMVKPEEPFQPVKEATQL [R109P],0.0534,0.0713,0.0701,0.0672,0.0635,0.0679,0.0738,0.0545,0.0768,0.0732,0.0686,0.0698,0.0659,0.0597,–,–,–
MGESLFKGPRDYNPISSSICHLTNESDGHTTSLYGIGFGPFIITNKHLFRRNNGTLVVQSLHGVFKVKDTTTLQQHLVDGRDMIIIRMPKDFPPFPQKLKFREPQREECICLVTTNFQTKSMSSMVSDTSCTFPSGDGIFWKHWIQTKDGQCGSPLVSTRDGFIVGIHSASNFTNTNNYFTSVPKNFMELLTNQEAQQWVSGWRLNADSVLWGGHKVFMVKPEEPFQPVKEATQL [R109C],0.0614,–,0.0657,–,0.08,–,0.0656,0.0588,0.0689,0.0587,0.0631,0.0586,0.0648,–,0.081,0.0502,–
MGESLFKGPRDYNPISSSICHLTNESDGHTTSLYGIGFGPFIITNKHLFRRNNGTLVVQSLHGVFKVKDTTTLQQHLVDGRDMIIIRMPKDFPPFPQKLKFREYQREERICLVTTNFQTKSMSSMVSDTSCTFPSGDGIFWKHWIQTKDGQCGSPLVSTRDGFIVGIHSASNFTNTNNYFTSVPKNFMELLTNQEAQQWVSGWRLNADSVLWGGHKVFMVKPEEPFQPVKEATQL [P104Y],0.0511,0.045,0.0514,0.0532,0.0605,0.0568,0.0655,0.0441,0.0383,–,0.0598,0.048,0.0512,0.0577,–,0.102,0.0393
MGESLFKGPRDYNPISSSICHLTNESDGHTTSLYGIGFGPFIITNKHLFRRNNGTLVVQSLHGVFKVKDTTTLQQHLVDGRDMIIIRMPKDFPPFPQKLNFREPQREERICLVTTNFQTKSMSSMVSDTSCTFPSGDGIFWKHWIQTKDGQCGSPLVSTRDGFIVGIHSASNFTNTNNYFTSVPKNFMELLTNQEAQQWVSGWRLNADSVLWGGHKVFMVKPEEPFQPVKEATQL [K100N],0.0794,–,–,–,0.051,0.0626,–,–,–,–,0.0387,–,0.0629,0.0545,–,–,–
MGESLFKGPRDYNPISSSICHLTNESDGHTTSLYGIGFGPFIITNKHLFRRNNGTLVVQSLHGVFKVKDTTTLQQHLVDGRDMIIIRMPKDFPPFPQKLWFREPQREERICLVTTNFQTKSMSSMVSDTSCTFPSGDGIFWKHWIQTKDGQCGSPLVSTRDGFIVGIHSASNFTNTNNYFTSVPKNFMELLTNQEAQQWVSGWRLNADSVLWGGHKVFMVKPEEPFQPVKEATQL [K100W],0.0588,–,–,0.0541,–,–,–,0.063,0.053,0.0736,–,0.0821,0.0591,0.0646,0.0609,–,0.0664
MGESLFKGPRDYNPISSSICHLTNESDGHTTSLYGIGFGPFIITNKHLFRRNNGTLVVQSLHGVFKVKDTTTLQQHLVDGRDMIIIRMPKDFPPFPQKLTFREPQREERICLVTTNFQTKSMSSMVSDTSCTFPSGDGIFWKHWIQTKDGQCGSPLVSTRDGFIVGIHSASNFTNTNNYFTSVPKNFMELLTNQEAQQWVSGWRLNADSVLWGGHKVFMVKPEEPFQPVKEATQL [K100T],0.0867,–,0.0678,0.036,–,–,0.0587,–,–,0.099,–,0.0631,–,–,0.0466,–,–
MGESLFKGPRDYNPISSSICHLTNESDGHTTSLYGIGFGPFIITNKHLFRRNNGTLVVQSLHGVFKVKDTTTLQQHLVDGRDMIIIRMPKDFPPFPQKLKFREPNREERICLVTTNFQTKSMSSMVSDTSCTFPSGDGIFWKHWIQTKDGQCGSPLVSTRDGFIVGIHSASNFTNTNNYFTSVPKNFMELLTNQEAQQWVSGWRLNADSVLWGGHKVFMVKPEEPFQPVKEATQL [Q105N],0.0721,0.0582,0.0939,0.0793,0.0507,0.0601,0.0796,0.0717,0.0731,0.0791,0.0733,0.0695,0.0666,0.0534,0.0683,–,0.086
MGESLFKGPRDYNPISSSICHLTNESDGHTTSLYGIGFGPFIITNKHLFRRNNGTLVVQSLHGVFKVKDTTTLQQHLVDGRDMIIIRMPKDFPPFPQKLKFREPTREERICLVTTNFQTKSMSSMVSDTSCTFPSGDGIFWKHWIQTKDGQCGSPLVSTRDGFIVGIHSASNFTNTNNYFTSVPKNFMELLTNQEAQQWVSGWRLNADSVLWGGHKVFMVKPEEPFQPVKEATQL [Q105T],0.0656,–,0.0683,–,0.059,–,0.0798,–,–,–,0.0528,0.0676,0.067,–,–,0.0714,–
MGESLFKGPRDYNPISSSICHLTNESDGHTTSLYGIGFGPFIITNKHLFRRNNGTLVVQSLHGVFKVKDTTTLQQHLVDGRDMIIIRMPKDFPPFPQKLKFREPKREERICLVTTNFQTKSMSSMVSDTSCTFPSGDGIFWKHWIQTKDGQCGSPLVSTRDGFIVGIHSASNFTNTNNYFTSVPKNFMELLTNQEAQQWVSGWRLNADSVLWGGHKVFMVKPEEPFQPVKEATQL [Q105K],0.0732,0.0702,0.0757,0.0716,0.0567,–,0.0602,0.0728,0.0738,0.0725,0.0592,0.0848,0.0626,–,–,–,0.0741
MGESLFKGPRDYNPISSSICHLTNESDGHTTSLYGIGFGPFIITNKHLFRRNNGTLVVQSLHGVFKVKDTTTLQQHLVDGRDMIIIRMPKDFPPFPQKLKQREPQREERICLVTTNFQTKSMSSMVSDTSCTFPSGDGIFWKHWIQTKDGQCGSPLVSTRDGFIVGIHSASNFTNTNNYFTSVPKNFMELLTNQEAQQWVSGWRLNADSVLWGGHKVFMVKPEEPFQPVKEATQL [F101Q],0.0392,0.0715,0.0586,0.054,0.0443,0.0577,0.0527,–,0.0464,0.0562,0.0551,0.0504,0.0556,0.0351,–,–,0.0392
